# Data reported in the supplement of paper PMC9334596.
# Where “and” joins values, the source holds several entries; their conditions need not be identical. Identical values can stand only once. In all, about 5,300 compounds were measured (“PER2::LUC luminescence relative to vehicle control”: median about 0.96, highest 2% from about 1.3 on). The list shows a part of the results.
# Tested on: mPer2Luc MEF
# Assay: PER2::LUC luminescence relative to vehicle control (fold of vehicle); higher = higher PER2::LUC reporter signal
# Conditions: 10 µM
# Summary of the method: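 Each value gives PER2::LUC luminescence as fold of vehicle control, measured with the ONE-Glo luciferase assay system in mouse embryonic fibroblasts carrying the mPer2Luc reporter. Cells grown in DMEM with 10% FBS at 37 °C and 5% CO2 were seeded at ~3000 per well in 384-well plates. Library compounds were added at 10 μM 48 h later, and readings were taken 24 h and 30 h after treatment.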
Structure (SMILES),PER2::LUC luminescence (time after treatment 24 h),PER2::LUC luminescence (time after treatment 30 h)
O=C(NC[C@@H]1CN(c2ccc(N3CCOCC3=O)cc2)C(=O)O1)c1ccc(Cl)s1,0.948,0.975
O=C(Nc1c[nH]nc1-c1nc2ccc(CN3CCOCC3)cc2[nH]1)NC1CC1,0.571,0.345
Cn1cc(-c2ccc(F)c(C(F)(F)F)c2)nc1C1CCN(c2ncnc3[nH]ncc23)CC1,0.925,0.975
CN(Cc1ccccc1)c1ccc2cc(C(=O)O)c(=O)oc2c1,1.06,0.948
CCNC(=O)N1CCN(CCCC(c2ccc(F)cc2)c2ccc(F)cc2)CC1,0.862 and 0.747,0.758 and 0.661
Fc1ccc(C(OCCCc2cnc[nH]2)c2ccc(F)cc2)cc1,0.983,0.796
COC1=C(OC)C(=O)C(CCCCCCCCCCO)=C(C)C1=O,1.04,0.777
C=CCN1CCc2cc(O)c(O)cc2C(c2ccccc2)C1 (racemic),1.04,1.07
O=C1CCC(c2ccc(-n3ccnc3)cc2)=NN1,0.982,0.963
COc1ccc(C(OCCN2CCC[C@H](C(=O)O)C2)(c2ccc(OC)cc2)c2ccc(OC)cc2)cc1,0.855,1.04
